# Experimental data reported in publication PMC4336329 (PLoS ONE, 2015).
# The campaign covered roughly 310,000 compounds. About 14,000 (4.5%) showed an effect of 50% or more. The effect is printed as a negative number. Some of the results follow.
# Molecular target: human ether-à-go-go-related gene (hERG) potassium channel (human, UniProt Q12809)
# Experiment: primary screen, population patch clamp on CHO cells stably expressing hERG
# 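Also: peak tail current of the secondary pulse compared with the same well before compound.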
# Chain of human ether-à-go-go-related gene (hERG) potassium channel (Q12809 whole entry, looked up): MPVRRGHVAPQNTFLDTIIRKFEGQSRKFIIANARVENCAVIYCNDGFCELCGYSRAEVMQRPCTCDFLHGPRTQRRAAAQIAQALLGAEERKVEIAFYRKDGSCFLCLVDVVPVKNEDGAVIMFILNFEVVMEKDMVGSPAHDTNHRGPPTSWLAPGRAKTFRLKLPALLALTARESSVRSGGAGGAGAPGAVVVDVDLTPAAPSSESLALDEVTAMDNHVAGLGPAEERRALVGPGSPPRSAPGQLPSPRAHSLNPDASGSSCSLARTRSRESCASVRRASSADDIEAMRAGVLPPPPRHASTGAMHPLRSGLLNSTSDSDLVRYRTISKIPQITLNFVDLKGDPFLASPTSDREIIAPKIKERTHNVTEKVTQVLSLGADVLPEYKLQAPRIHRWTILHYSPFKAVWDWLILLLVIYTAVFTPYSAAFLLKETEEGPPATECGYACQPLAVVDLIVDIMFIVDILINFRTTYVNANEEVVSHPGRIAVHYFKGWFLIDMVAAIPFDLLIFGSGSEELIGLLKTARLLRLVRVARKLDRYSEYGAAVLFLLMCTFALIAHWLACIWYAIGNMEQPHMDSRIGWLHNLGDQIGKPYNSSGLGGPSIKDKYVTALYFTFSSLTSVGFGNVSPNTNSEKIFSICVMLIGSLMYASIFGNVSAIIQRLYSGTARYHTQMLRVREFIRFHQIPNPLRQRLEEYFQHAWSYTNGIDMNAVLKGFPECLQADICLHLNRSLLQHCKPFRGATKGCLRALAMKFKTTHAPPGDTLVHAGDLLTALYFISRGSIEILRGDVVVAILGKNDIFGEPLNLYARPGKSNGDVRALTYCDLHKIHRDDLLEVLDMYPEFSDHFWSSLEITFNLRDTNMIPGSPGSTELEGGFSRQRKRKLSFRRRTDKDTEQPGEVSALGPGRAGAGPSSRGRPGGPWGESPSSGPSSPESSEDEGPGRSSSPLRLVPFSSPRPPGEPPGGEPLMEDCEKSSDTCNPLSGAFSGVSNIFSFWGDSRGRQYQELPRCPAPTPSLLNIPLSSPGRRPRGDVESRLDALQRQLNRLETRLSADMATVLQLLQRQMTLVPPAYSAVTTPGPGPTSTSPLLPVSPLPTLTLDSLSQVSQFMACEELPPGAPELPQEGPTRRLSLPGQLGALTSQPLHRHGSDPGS
row,SMILES,"hERG current change (%, negative = inhibition) at 10uM [%]"
1,Cc1cccc(OCc2nc(C#N)c(N3CCCC3)o2)c1,-29.5
2,COc1ccc(OCC(=O)Nc2sc3c(c2C(=O)NCC2CCCO2)CCC3)cc1 (centres unmarked),11.2
3,CCC1=NN2C(=N)/C(=C\c3ccc(OCCOc4ccccc4)c(OC)c3)C(=O)N=C2S1,8.67
4,COc1ccccc1OCCC(=O)Nc1cccc(S(=O)(=O)N2CCOCC2)c1,8.91
5,CN(C)N(Cc1ccccc1)C(=O)C(O)(c1ccccc1)c1ccccc1,11.7
6,O=[N+]([O-])c1ccc(Sc2nccn2Cc2ccccc2)c([N+](=O)[O-])c1,-57.9
7,COc1ccc2[nH]c(=O)c(CN(CC3CCCO3)S(=O)(=O)c3ccccc3)cc2c1 (centres unmarked),16.7
8,COc1cc(OC)cc(-c2nnc(SCC(=O)N3CCCCC3)o2)c1,-11.2
9,Cn1c(SCc2ccccc2Cl)nc(C(F)(F)F)cc1=O,1.65
10,Cc1cc(-n2c(C)cc(C(=O)COc3cc(F)ccc3[N+](=O)[O-])c2C)no1,4.39
11,COc1ccc(CCn2nnc(-c3ccc(NC(C)=O)c(Cl)c3)n2)cc1,17.1
12,CCC1(CC)C(=O)C2=C3C1[C@H](C(=O)OC)CC(C(=O)OC)C[C@H]3[C@H]1C(=O)N(c3ccccc3)C(=O)[C@H]1[C@H]2C (some centres unmarked),2.34
13,CCOc1cc(S(=O)(=O)NCc2cccs2)ccc1Cl,0.116
14,CC[C@H](C)[C@H](NS(=O)(=O)c1ccc(C)cc1)C(=O)N1CCC(C(=O)N[C@H](C(=O)O)C(C)C)CC1,-6.62
15,Cc1ccc(-n2cc(CNC(C)Cc3cnccn3)c(-c3cccc(C)c3)n2)cc1 (centres unmarked),-73.8
16,COC(=O)C1=C(c2ccc(S(C)(=O)=O)cc2)C[C@@H]2CC[C@H]1N2C(=O)NC1CC1,17
17,O=C(Nc1ccc(N2CCN(C(=O)c3ccccc3)CC2)c(Cl)c1)c1ccco1,-29.5
18,Cc1ccoc1C(=O)N1CCCCC1C(=O)O (centres unmarked),18.2
19,CCN(CC)C(=O)c1sc(NC(=O)c2c(OC)cccc2OC)c(C#N)c1C,19.1
20,Cc1ccc(S(=O)(=O)NC(C(=O)N2CCOCCOCCOCCOCC2)c2ccccc2)cc1 (centres unmarked),-7.3
21,CCOC(=O)c1cnn(-c2ncnc3c2cnn3C)c1N,2.99
22,CCOC(=O)/C(=N\Nc1cc(Cl)ccc1Cl)N1CCN(CC)CC1,-17.8

row,SMILES,"hERG current change (%, negative = inhibition) at 10uM [%]"
1,O=C(Nc1ccc(S(=O)(=O)N2CCOCC2)cc1)c1cc(-c2cc(Cl)ccc2O)n[nH]1,4.71
2,O=c1[nH]nnc2c1sc1nc(N3CCOCC3)c3c(c12)CCCC3,-12.4
3,Nc1cccc(NC(=O)c2cccs2)c1,1.7
4,Cc1ccc(S(=O)(=O)/N=C2\C=C(Nc3cccc(C(=O)O)c3)C(=O)c3ccccc32)c(C)c1,27.9
5,CC(=O)O.O=S(=O)(CCc1ccncc1)C1Cc2cccc3cccc1c23 (centres unmarked),-26.9
6,COc1ccc2ccccc2c1CNCc1ccc(C)cc1.O=C(O)C(=O)O,-69.7
7,CC1Cc2cc(/C(O)=C3/C(=O)C(=O)N(Cc4ccncc4)C3c3ccc(N(C)C)cc3)ccc2O1 (centres unmarked),10
8,O=C(Nc1ccccc1Cl)c1c(F)c(F)c(F)c(F)c1F,-0.355
9,COc1ccc(N(CC(=O)Nc2cccc(C(F)(F)F)c2)S(=O)(=O)c2c(C)[nH]c(=O)[nH]c2=O)cc1,3.87
10,Cc1ccc(C(=O)O)cc1NC(=O)c1cccs1,9.1
11,O=C(O)c1cc2n(n1)CCN(Cc1ccccc1Cl)C2=O,8.71
12,CN(Cc1ccc(Cl)cc1Cl)C(=O)CNC(=O)c1ccco1,-19
13,C(=N\N1CCN(c2ccccn2)CC1)/c1ccco1,9.41
14,COc1ccc(NC(=O)C(OC(=O)c2cnc(C)cn2)c2ccccc2)cc1Cl (centres unmarked),-5.92
15,Cc1ccc(-n2ncc3c2CCCC3NC(=O)c2csnn2)cc1C (centres unmarked),-33.2
16,CC(Oc1ccc(Cl)cc1Cl)C(=O)N/N=C1\CCCc2ccccc21 (centres unmarked),-1.49
17,CC(C)[C@@H](C(=O)NC1CCN(Cc2ccccc2)CC1)N1C(=O)N2CCc3c([nH]c4ccccc34)[C@@]2(C)C1=O,-74.6
18,O=C(NCCN1C(=O)S/C(=C\c2ccc(Cl)c(Cl)c2)C1=O)C1COc2ccccc2O1 (centres unmarked),-9.28
19,Cc1oc2cc3oc(=O)c(CCC(=O)NCCN4CCOCC4)c(C)c3cc2c1C,-4.78
20,CC(=O)Nc1ccc(C2=NNC(=NCC3CCCO3)SC2)cc1 (centres unmarked),12.5
21,CCOC(=O)c1ccc(N=c2sc(C(=O)OC)cc(=O)n2CCCN2CCOCC2)cc1,-15.9
22,O=Nc1c(O)[nH]c2ccc(F)cc12,4.06

row,SMILES,"hERG current change (%, negative = inhibition) at 10uM [%]"
1,NC(=O)NC(=O)COC(=O)/C=C/c1cccs1,10.7
2,CC(=O)N1CCN(CC(=O)Nc2ccc(C#N)c(Cl)c2)CC1,-71.7
3,CCOC(=O)c1c(C)[nH]c(C(=O)N2CCN(C(=O)OCC)CC2)c1C,6.34
4,OC1=C(O)c2nc3cc(F)ccc3nc21,10.9
5,COc1ccccc1-c1cc(C(F)(F)F)nc(S(=O)(=O)CCCC(=O)O)n1,18.8
6,CC(C)Cn1c(N)c(C(=O)COC(=O)c2nccnc2N)c(=O)n(C)c1=O,-17.6
7,Cc1cccc(OCC(=O)NNC(=O)Nc2cccc(Cl)c2)c1C,12
8,C=CCNC(=O)C(C)N1c2cccc3cccc(c23)S1(=O)=O (centres unmarked),9.53
9,O=C(c1ccc2c(c1)OCO2)N(CC1CCCO1)C1(C(=O)NC2CCCCC2)CCCCC1 (centres unmarked),-12.7
10,FC(F)(F)/C(=N\P(=S)(N1CCOCC1)N1CCOCC1)N1CCOCC1,12.6
11,O=C(CNC(=O)c1cccs1)Nc1ccc(N2CCOCC2)cc1,8.43
12,Cc1ccc(-n2c(O)c(C=NCCC3=CCCCC3)c(=O)[nH]c2=O)cc1,7.19
13,c1ccc(-c2cc(N3CCCCCC3)n[nH]2)cc1,-9.09
14,CC(=O)Nc1nnc(COc2ccc(Cl)cc2)s1,30.7
15,COCCNC(=S)NCc1ccc2[nH]c3c(c2c1)CCCC3,0.473
16,Cc1cccc(C(=O)O/N=C(\N)CS(=O)(=O)c2ccccc2)c1,11.9
17,O=C(OCc1nnc(-c2ccccc2)o1)C1CC(=O)N(Cc2ccco2)C1 (centres unmarked),-24.1
18,CCn1c(NCc2cc(Cl)ccc2O)nc2ccccc21,-1.24
19,O=C1OCCC1Sc1nc2ccccc2c(=O)n1Cc1ccccc1 (centres unmarked),-82.4
20,COc1cc(OC)c(NS(=O)(=O)c2cccc(C(=O)OCC(=O)NCC3CCCO3)c2)cc1Cl (centres unmarked),20.6
21,O=C(CN1C(=O)C2C3C=CC(C3)C2C1=O)Nc1cccc(S(=O)(=O)N2CCCC2)c1 (centres unmarked),5.26
22,COc1ccccc1NC(=O)C(=O)NCc1ccccc1Cl,10.5

row,SMILES,"hERG current change (%, negative = inhibition) at 10uM [%]"
1,O=C1c2ccccc2CCc2ccc(Br)cc21,18.4
2,CN(C)c1ccc(C=NCCC2(c3ccccc3)CCOC(C)(C)C2)cc1 (centres unmarked),15.3
3,Cc1[nH]c(=O)[nH]c(=O)c1CSc1nnc([C@@H](NC(=O)OC(C)(C)C)C(C)C)o1,-30.8
4,COc1ccc(N(CC(O)Cn2c3ccccc3c3ccccc32)S(=O)(=O)c2ccccc2)cc1 (centres unmarked),3.8
5,Cc1ccc(S(=O)(=O)CCSc2n[nH]c(=O)n2-c2ccc3c(c2)OCCO3)cc1,-6.25
6,O=C(CSc1nnc(-c2ccco2)o1)Nc1cccc([N+](=O)[O-])c1,12.7
7,COc1ccc(C(C)=O)cc1CSc1nnc(-c2ccncc2)o1,-22.8
8,CCOC(=O)c1cccc(NC(=O)CSc2nnc(-c3ccncc3)n2CCCOC)c1,-50.4
9,COc1ccccc1/C=C/C(=O)OCc1nc2ccccc2c(=O)[nH]1,13.8
10,O=c1c(-c2ccco2)[n+]([O-])c2ccccc2n1OCc1ccccc1F,4.45
11,CC(=O)Nc1ccc(OCC(O)CNC2CCCC2)cc1.Cl (centres unmarked),6.24
12,O=C(OCc1ccc([N+](=O)[O-])cc1)c1cc(=O)c2ccccc2o1,16.9
13,CCSc1n[nH]c2nc3c(c(=O)n12)C1(CCCCC1)Cc1ccccc1-3,-13.9
14,N=c1c2c3c(sc2ncn1Cc1ccccc1)CCCC3,-49.7
15,COC(=O)c1ccc(NC(=O)c2cccnc2)cc1,16.5
16,CCN(CCNC(=O)C1CCN(S(C)(=O)=O)CC1)c1ccccc1,-1.8
17,CCOC(=O)N1CCC(N2CCN(C3CCCC3)C(CCO)C2)CC1 (centres unmarked),-15.4
18,CCc1cccc(NC(=O)Nc2ccc3c(c2)OCO3)c1,15
19,COc1ccc(NC(=O)C2C3CCC(C3)C2C(=O)O)cc1OC (centres unmarked),20
20,CCC(CC)c1nnc(NC(=O)C2CSC3(C)CCC(=O)N23)s1 (centres unmarked),-12.2
